Assay [1] concerns the target GST::Bru (full-length Bruno fused to GST) (Drosophila) (UniProt O02374). Put plainly: pull-down; GST::Bru, GST::Cup or GST immobilized on Glutathione Sepharose 4B from E. coli extract and washed; ~100 ng N-terminally His6-tagged Bru protein in 80 μl binding buffer (50mM Tris-Cl pH7.5, 150mM NaCl, 10% glycerol, 1mM DTT, 0.1% IGEPAL-CA-630), 2–3 hr at room temperature; Western blot with anti-His antibody; both purified. For orientation: A western blot detects proteins with antibodies after separation by electrophoresis.

Assay [2] addresses T1, GST::Cup577–947 (Drosophila) (UniProt Q9VMA3).
T1 sequence: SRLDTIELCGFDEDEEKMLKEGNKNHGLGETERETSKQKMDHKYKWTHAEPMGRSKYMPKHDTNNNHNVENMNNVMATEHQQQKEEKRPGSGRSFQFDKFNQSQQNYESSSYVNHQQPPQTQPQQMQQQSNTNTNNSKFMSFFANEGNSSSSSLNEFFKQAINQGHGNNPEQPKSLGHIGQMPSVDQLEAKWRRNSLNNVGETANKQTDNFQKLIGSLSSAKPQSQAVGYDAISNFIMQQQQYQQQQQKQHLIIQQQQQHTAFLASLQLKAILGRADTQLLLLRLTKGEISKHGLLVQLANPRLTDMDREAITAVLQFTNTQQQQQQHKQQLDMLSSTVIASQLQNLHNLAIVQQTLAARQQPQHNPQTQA
The description is as above.

These are yes or no findings as the source states them, for the method shown. Some results given as binding are weak or reduced against the parent protein; the word gives no strength. For part of these data: Where a sequence is shown, tags or fusion partners need not be part of it.

On to “His6::Bru Δ1–146 (from UniProt O02374 147-604) (domain or fragment)”, for which the binding entry in assay [1] is listed as “no binding (tested: ~100 ng in 80 μl)”; in assay [2], “binds”.

As for “His6::Bru Δ1–146 Δ334–416 (from UniProt O02374 147-604) (domain or fragment)”, the binding result in assay [2] is reported as “no binding (tested: ~100 ng in 80 μl)”.

B1: His6::Bru (full-length Bruno, Bru+) (natural protein, Drosophila, UniProt O02374 1-604, looked up)
chain: MFTSRASFLANRRMIFDFSEKNNDIYLDAFGMSDKSSSATNSLPNSPIHSNNNNPSLLNNNNNNSNGTSSNNSLNVGNNNSNPSLGGTNSNALVSVGSNGIMSAAGLVNNNNNPCSANRNVVAMVDDDACFRLDTDATVTYGEKEPDPDNIKMFVGQVPKSMDESQLREMFEEYGAVHSINVLRDKATGISKGCCFVTFYTRRAALKAQDALHNVKTLNGMYHPIQMKPADSENRNERKLFVGMLNKKLNENDVRKLFEVHGAIEECTVLRDQNGQSKGCAFVTFATKHAAISAIKVTLSQNKIMEGCTSPLVVKFADTQKEKEQKKIQQIQANLWNLASNINIPLGQTATSVTTPILPNPPQQPSPVLGADAITPASIQLLQQLQAVGLQHQLLQALTGLGAQQSSSATDTSAVAAAGLLTPMTVQNLAAIAAMTQPSLSNAAAAAARATSPGSAQLTNTAALLWSDPNPMASAYMSTAAGLPQFGSASALSTSPLASVALSAAAAAAAGKQIEGPEGCNLFIYHLPQEFTDTDLASTFLPFGNVISAKVFIDKQTSLSKCFGFVSFDNPDSAQVAIKAMNGFQVGTKRLKVQLKKPKDSKPY
notes: Bruno (Bru; encoded by the aret gene), Drosophila; full-length Bru in pET-15b; Vector pET-15b; The tethered transgene proteins carry RRM2/RRM3 point mutations; source: E. coli, purified (Ni-NTA); not shown: His6, N-terminal, kept
For the molecule B1, the binding entry in assay [2] is recorded as “binds”.

B2: His6::Bru Δ334–416 (natural protein, Drosophila, UniProt O02374 1-604, looked up)
chain: MFTSRASFLANRRMIFDFSEKNNDIYLDAFGMSDKSSSATNSLPNSPIHSNNNNPSLLNNNNNNSNGTSSNNSLNVGNNNSNPSLGGTNSNALVSVGSNGIMSAAGLVNNNNNPCSANRNVVAMVDDDACFRLDTDATVTYGEKEPDPDNIKMFVGQVPKSMDESQLREMFEEYGAVHSINVLRDKATGISKGCCFVTFYTRRAALKAQDALHNVKTLNGMYHPIQMKPADSENRNERKLFVGMLNKKLNENDVRKLFEVHGAIEECTVLRDQNGQSKGCAFVTFATKHAAISAIKVTLSQNKIMEGCTSPLVVKFADTQKEKEQKKIQQIQAAAGLLTPMTVQNLAAIAAMTQPSLSNAAAAAARATSPGSAQLTNTAALLWSDPNPMASAYMSTAAGLPQFGSASALSTSPLASVALSAAAAAAAGKQIEGPEGCNLFIYHLPQEFTDTDLASTFLPFGNVISAKVFIDKQTSLSKCFGFVSFDNPDSAQVAIKAMNGFQVGTKRLKVQLKKPKDSKPY
notes: also called Bru lacking most of the linker domain between RRMs 2 and 3; source: E. coli, purified (Ni-NTA); not shown: His6, N-terminal, kept
As to B2, the binding entry in assay [2] is “binds”.

B3: His6::Bru 1–146 (isolated amino-terminal domain) (domain or fragment, Drosophila, UniProt O02374 1-146, looked up)
chain: MFTSRASFLANRRMIFDFSEKNNDIYLDAFGMSDKSSSATNSLPNSPIHSNNNNPSLLNNNNNNSNGTSSNNSLNVGNNNSNPSLGGTNSNALVSVGSNGIMSAAGLVNNNNNPCSANRNVVAMVDDDACFRLDTDATVTYGEKEP
notes: also called Bru amino-terminal domain; source: E. coli, purified (Ni-NTA); not shown: His6, N-terminal, kept
B3: the binding entry in assay [2] is “binds”.
